Measurements taken from patent publication US20230058961A1, “SUBSTITUTED HETEROCYCLICS WITH THERAPEUTIC ACTIVITY IN HIV” (New York Blood Center, Inc., priority 2019, published 2023).

What was measured:
[1] = tested on: recombinant CD4-dependent pseudovirus HIV-1ADA in CD4-negative Cf2Th-CCR5 cells; assay: Infectivity of CD4-negative Cf2Th-CCR5 cells by CD4-dependent HIV-1ADA (entry agonist test); conditions: HIV-1ADA pre-treated with escalating concentrations, 48 h, FIG. 1
Description: FIG. 1 depicts the infectivity of CD4 negative Cf2Th-CCR5 cells by HIV-1NL4-3/ADA (CD4-dependent virus) in the presence of indicated control and subject compounds.
Compound C is known to be an entry agonist promoting CCR5 binding and enhancing HIV-1 entry into CD4-negative cells expressing CCR5 (Curreli, F. et al., Antimicrob Agents Chemother 58:5478-5491, 2014; Schon, A. et al., Biochemistry 45:10973-10980, 2006). […] Compound C was used as a control.
CD4-negative Cf2Th-CCR5 cells were plated at 6×10^3 cells/well in a 96-well tissue culture plate and incubated overnight. […] The luciferase activity was immediately measured to obtain the relative infection compared to the untreated control. The Relative virus infectivity indicates the amount of infection detected in the presence of the compounds divided by the amount of infection detected in the absence of the compounds.
Briefly, the Cf2Th-CCR5 cells were plated at 6×10^3 cells/well in a 96-well tissue culture plate. […] The luciferase activity was immediately measured to obtain the relative infection concerning the untreated control. The Relative virus infectivity indicates the amount of infection detected in the presence of the compounds divided by the amount of infection detected in the absence of the compounds.

[2] = tested on: recombinant CD4-dependent pseudovirus HIV-1ADA in CD4-negative Cf2Th-CCR5 cells; conditions: known from the literature; cited from earlier work

In the case of `CC1(C)CC(NC(=O)C(=O)Nc2ccc(Cl)cc2)CC(C)(C)N1` [Compound C], the “HIV-1 infectivity in CD4-negative Cf2Th-CCR5 cells (relative virus infectivity)” value [1] is listed as “enhanced the infection” and the “HIV-1 entry agonist property” value [2] is listed as “entry agonist”.
